Out of some 46,000 compounds screened, about 60 (0.1%) were called active. About 3% were inconclusive and are not listed. Calls follow the shape of the dose curve; as a rule, active = well fitted inhibition curve with a large enough effect; inconclusive = small, poorly fitted or top-dose-only effect; inactive = no such curve, though single readings can be large or run the other way. The list shows a part of the results.
Assay: Primary qHTS assay for Inhibitors of ovarian cancer metastasis using an organotypic tumor microenvironment (TME) model. Also: nearly all actives have a fitted effect of over 65% in size.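 As to activity change, negative = inhibition: plate controls were DMSO wells for no effect and tomatine positive control wells for full effect.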
Conditions: SKOV3ip1-GFP adhesion/invasion on 3D omental model, fluorescence; series mostly up to 45.8 µM; activity change, negative = inhibition: at the top concentration
Method in brief: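 Adhesion/invasion was scored as fixed GFP-labeled SKOV3ip1 cell counts (488/509 nm), normalized to DMSO and tomatine controls. Cancer cells in serum-free medium, with four compound doses (0.36-46 umol/L), sat 2 hr at RT then 16 hr at 37 C on a 48 hr fibroblast/mesothelial/ECM culture.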

Activity change, negative = inhibition, inactive:
COc1ccc(S(=O)(=O)c2nnn(-c3ccc(C(C)C)cc3)c2C)cc1 1.08%
Cc1cc(C)c(S(=O)(=O)N2CCN(Cc3ccc4c(c3)OCO4)CC2)cc1C 1.01%
Cc1c(Cl)cccc1Nc1nn2c(=O)c3ccc(C(=O)NCCC4=CCCCC4)cc3nc2s1 2.46%
Cc1ccccc1Cn1c(=O)n(CC2CCC(C(=O)N3CCOCC3)CC2)c(=O)c2sccc21 (stereo not given) 4.14%
CCOc1ccc(C2C(=O)N(C3CCCCC3)CC(=O)N2CCc2ccccc2)cc1OC (stereo not given) 0.109%
Oc1ccc(-c2nc3ccc(Cl)cn3c2Nc2ccc3c(c2)OCO3)cc1 2.51%
Cc1ccc(-n2c(=O)c3c(C)c(C)sc3n(Cc3ccc(F)cc3Cl)c2=O)cc1C 28.6%
O=C1CC(=O)Nc2cc(S(=O)(=O)N3CCOc4ccc(Cl)cc43)ccc2N1 2.68%
COc1ccc(N(C(=O)c2ccccc2)S(=O)(=O)c2ccc3c(c2)n(C)c(=O)n3C)cc1 7.04%
O=C(NCc1ccc(Cl)cc1)C1CCN(S(=O)(=O)c2ccccc2)CC1 10.2%
CC(=O)c1ccc(NC(=O)Cn2ncc3c4ccccc4n(Cc4ccccc4)c3c2=O)cc1 -16.1%
COc1cc(C(=O)NCc2nc3cccnc3n2Cc2ccc(C)cc2)cc(OC)c1OC 1.14%
Cc1cc(C)c(NS(=O)(=O)c2ccc(-c3coc(C)n3)cc2)c(C)c1 -5.26%
CCN1CCN(C(c2ccccc2Cl)c2c(O)cc(C)n(Cc3ccco3)c2=O)CC1 (stereo not given) -0.981%
Cn1c(=O)c2c(ncn2Cc2ccc(Cl)cc2)n(C)c1=O -5.14%
O=C(Cn1c(=O)n2nc(-c3cccc(F)c3)nc2c2ccccc21)N1CCN(c2ccc(F)cc2)CC1 2.99%
O=C(NC1CC(=O)N(c2ccc(F)cc2)C1)c1ccc2c(c1)OCO2 (stereo not given) -6.26%
COc1ccccc1CNC(=O)CCn1cnc2ccccc2c1=O 1.56%
O=C(c1ccc2c(c1)N(Cc1cccc(Cl)c1)C(=O)c1ccccc1S2=O)N1CCN(c2cccc(C(F)(F)F)c2)CC1 (stereo not given) 7.93%
COc1ccc(N2CCN(C(=O)CNS(=O)(=O)c3ccc(Br)s3)CC2)cc1 3.13%
Cc1cccc(N2CCN(C(=O)c3noc4c3CCCCC4)CC2)c1C -9.71%
COc1ccccc1NC(=O)c1cn(-c2ccccc2)nc1-c1ccccc1 -1.35%
Cc1cc(C(=O)C(=O)Nc2nncs2)c(C)n1-c1ccc(Cl)cc1 4.25%
CCc1ccc(NC(=O)Cn2c(=O)n(-c3cc(OC)c(OC)c(OC)c3)c(=O)c3ccccc32)cc1 -8.48%
COc1ccc(CNC(=O)CCCn2nc(C)c3c(C)n(-c4ccc(C)cc4)nc3c2=O)cc1OC 9.77%
Cc1ccc(-n2ncc3c(NC4CCCCC4)ncnc32)cc1Cl 6.5%
CCOc1cc(CNC(=O)c2ccc3c(c2)N(C)C(=O)C2CCCCN32)ccc1OC (stereo not given) -6.25%
COc1ccc(OC)c(NC(=O)CN2CCCN(Cc3ccccc3Cl)S2(=O)=O)c1 -5.2%
O=C(CNC(=O)c1ccc(F)cc1)OCc1cc(=O)n2nc(C3CCCCC3)sc2n1 86.1%
CN1CCC(COc2cnc(-c3cccc(Cn4nc(-c5cccc(C#N)c5)ccc4=O)c3)nc2)CC1 6.43%
CCOc1ccc(CNC(=O)CCS(=O)(=O)c2cc3c4c(c2)CCN4C(=O)CC3)cc1OC -9.84%
CC(C)c1cc(C(=O)N2Cc3ccc(CN4CCN(C)CC4)cc3C2)c(O)cc1O 4.68%
O=C(CSc1nccn1Cc1ccco1)Nc1cc(C(F)(F)F)ccc1Cl -4.28%
CCN(c1ccccc1)c1nnc(NC(=O)Nc2ccc(Br)c(C)c2)s1 -6%
CCc1ccc(S(=O)(=O)c2cn(CC)c3cc(N4CCCCC4)c(F)cc3c2=O)cc1 -10%
COc1ccc2nc(NC(=O)c3cc(=O)c4cc(C)cc(C)c4o3)sc2c1 -20.6%
COc1ccc(OC)c(NC(=O)CCNS(=O)(=O)c2ccc3c(c2)oc(=O)n3C)c1 -2.12%
Nc1c(C(=O)NCc2ccc(Cl)cc2)sc2nc(-c3ccc(F)cc3)ccc12 -7.94%
Cn1cnc(S(=O)(=O)N2CCCC(C(=O)Nc3ccc(F)cc3Cl)C2)c1 (stereo not given) 6.09%
Cc1ccc(C2c3c(-c4ccccc4O)n[nH]c3C(=O)N2CCCO)cc1 (stereo not given) -2.79%
O=C(NCCn1cc(SCc2ccc(F)cc2)c2ccccc21)c1c(F)cccc1F 14.1%
CCCCc1cc(=O)oc2cc(C)c3c(C)coc3c12 3.67%
COc1cccc(CNC(=O)C2CCN(c3nc4ccc(Cl)cc4[nH]3)CC2)c1 15.9%
CSc1ncc(Cl)c(C(=O)Nc2ccc(S(=O)(=O)N3CCC(C)CC3)cc2)n1 -9.4%
COC(=O)c1ccc(NS(=O)(=O)c2ccc(-n3cccn3)cc2)cc1 3.83%
CCc1ccc(OCCCSc2nc(-c3ccc(C(C)(C)C)cc3)nc3cc(=O)[nH]n23)cc1 -0.0165%
CSc1nc(C)cc(Nc2c(C)cc(C)cc2C)n1 -13.9%
COc1cccc(C(=O)Nc2ccc(Cl)c(-c3nc4ccccc4[nH]3)c2)c1 1.87%
COc1ccc2c(c1)CC(NC(=O)Nc1cc(Cl)ccc1OC)CO2 (stereo not given) -7.42%
Cc1ccccc1NC(=O)c1ccc2nc(Cc3ccccc3)oc2c1 14.6%
Cc1ccc(S(=O)(=O)c2cn(C)c3cc(N4CCCCCC4)c(F)cc3c2=O)cc1 7.16%
C=Cc1ccc(Cn2c(C(=O)O)c(CNCc3cccs3)c3ccc(C)cc32)cc1 4.51%
Cc1ccc(Cn2c(=O)n(-c3ccccc3)c(=O)c3ccc(C(=O)NCc4ccco4)cc32)cc1 -14.8%
Cn1c(SCc2ccc(F)cc2)nc2c([nH]c3ccccc32)c1=O -2.34%
CCOc1ccc(NC(=O)c2cc3c(-c4ccccc4F)nn(C)c3s2)cc1 -3.21%
COc1ccc2cc3cc(C(=O)N4CCN(c5ccc(C(C)=O)cc5)CC4)sc3nc2c1Cl 3.62%
COc1ccc(C(=O)Nc2cc(-c3cccc(C)c3)nn2-c2ccccc2)cc1 6.05%
CCN(CC)CCNC(=O)c1sc2nc3n(c(=O)c2c1C)CCCCC3 5%
COc1ccc(OCC2c3cc(OC)c(OC)cc3CCN2C(=O)c2ccc(F)cc2)cc1 (stereo not given) -26.6%
COc1cccc(C(=O)N(Cc2sccc2C)C2CCS(=O)(=O)C2)c1 (stereo not given) 9.42%
CCOC(=O)c1c(C)oc2nc(C)nc(N3CCN(c4ccc(C(C)=O)cc4)CC3)c12 -18%
Cc1cc(NC(=O)Cn2c(=O)nc(-c3ccccc3F)c3cc(Cl)ccc32)ccc1Br 15.2%
O=S(=O)(NCCc1csc2nc(-c3ccc(F)cc3)nn12)c1ccc(Br)cc1 -0.994%
O=S(=O)(NCc1nc2cccnc2n1Cc1ccc(F)cc1)c1ccc2c(c1)CCCC2 -1.24%
CCOC(=O)c1ccc(NC(=O)c2c(NCc3cccs3)sc3c2CCCCC3)cc1 7.1%
Cc1cccc(Cn2c(CN3CCC(C(=O)NCc4cccnc4)CC3)cc3ccccc32)c1 -22.8%
CCN1CCN(c2cc(C)c3cc(NC(=O)c4cccc(C(F)(F)F)c4)ccc3n2)CC1 4.55%
COc1cccc(CSc2nc3n(n2)C(c2cccs2)C(C(=O)Nc2ccccc2C)=C(C)N3)c1 (stereo not given) -9.07%
Cc1ccc(OCCn2cc(C(=O)C3CCCCC3)c3ccccc32)cc1 -12.7%
CCCCOC(=O)CSc1nnc(-c2ccccc2)o1 18.9%
CC(=O)Nc1nonc1-c1nnc(SCC(=O)Nc2cc(C)cc(C)c2)n1C -7.56%

outcome, inactive:
COc1ccc(CCNC(=O)Cc2c(C)c3cc4c(C)coc4cc3oc2=O)cc1OC
Cc1cccc(Cn2nnc3c(=O)[nH]c(C4CCCN(C(=O)c5ccccc5Cl)C4)nc32)c1 (stereo not given)
Cc1ccc(N(C)C(=O)CN2C(=O)CCc3cc(S(=O)(=O)N4CCOCC4)ccc32)cc1
N#Cc1nc(/C=C/c2ccc(F)cc2)oc1NCc1ccc(F)cc1
CC(NC(=O)c1ccc(F)cc1)c1nc2ccccc2[nH]1 (stereo not given)
CCOc1ccccc1C(=O)NCc1nc2cccnc2n1Cc1ccc(C)cc1
O=C(CN1C(=O)COc2ccc(S(=O)(=O)N3CCCCCC3)cc21)N1CCN(c2ccccc2F)CC1
O=C(c1ccc2c(Cl)c3c(nc2c1)CCCC3)N1CCN(c2cccc(C(F)(F)F)c2)CC1
Cc1ccc(CNC(=O)CN2CCN(Cc3ccc(F)cc3Cl)C2=O)cc1
COc1ccc2c(CNCCc3cccs3)c(C(=O)O)n(Cc3cccc(F)c3)c2c1
COc1cc(OC)c(NC(=O)C2CCN(S(=O)(=O)c3ccc4c(c3)oc(=O)n4C)CC2)cc1Cl
CCc1ccc(Nc2sc(C(=O)c3ccc(F)cc3)c(N)c2S(=O)(=O)c2ccccc2)cc1
Cn1nnnc1SCCNCc1ccccc1OCc1ccccc1F
Cc1ccc(Cn2c(C(=O)Nc3cccc(Cl)c3)cc3sccc32)cc1
CCOC(=O)c1cccc(NC(=O)c2ccc3c(c2)nnn3C2CCCC2)c1
CC(=O)c1ccc(N2CCN(S(=O)(=O)c3ccc4c(c3)CC(C)N4C(=O)C3CCC3)CC2)cc1 (stereo not given)
COc1ccccc1C(=O)Nc1c(C(=O)N(CCN(C)C)Cc2ccco2)oc2ccccc12
O=C(CCSCc1cnn(-c2ccccc2)c1-n1cccc1)NCc1ccccc1F
CC(C)(C)OC(=O)N1CCC(c2c(C(=O)NCc3ccc(F)cc3)cnn2-c2ccc(F)cc2)CC1
Cc1ccc(NC(=O)Cn2c(=O)n(-c3ccc(Cl)c(Cl)c3)c(=O)c3c(C)c(C)sc32)c(C)c1
CCOC(=O)c1c(N)n(-c2ccc(Cl)c(Cl)c2)c2nc3ccccc3nc12
COc1cn(CC(=O)Nc2ccc(F)cc2)c(CN2CCCCC2)cc1=O
CC1=C(C(=O)Nc2ccccc2C)C(c2ccncc2)n2nc(SCc3ccccc3)nc2N1 (stereo not given)
CCOC(=O)c1ccc(NC(=O)CC2C(=O)N(c3cccc(OC)c3)C(=O)N2C2CCCCC2)cc1 (stereo not given)

Reference: PubChem BioAssay AID1963576 (National Center for Advancing Translational Sciences (NCATS), 2024)
